Source: the supplement of paper PMC3334620
Whole data set: some 33,000 sequences, median “E-score (-0.5 to 0.5)” near -0.013, cut for the highest 2% near 0.3. Some of the results follow.

What follows are sequences tested against T1, Msn1 (UniProt P22148) (assay: PBM E-score (8-mer binding enrichment) (E-score (-0.5 to 0.5)); higher = stronger / more preferred TF binding; most listed sequences are background and not binding sites). Conditions: protein concentration: 200 nM; construct: GST-full length.
T1 sequence: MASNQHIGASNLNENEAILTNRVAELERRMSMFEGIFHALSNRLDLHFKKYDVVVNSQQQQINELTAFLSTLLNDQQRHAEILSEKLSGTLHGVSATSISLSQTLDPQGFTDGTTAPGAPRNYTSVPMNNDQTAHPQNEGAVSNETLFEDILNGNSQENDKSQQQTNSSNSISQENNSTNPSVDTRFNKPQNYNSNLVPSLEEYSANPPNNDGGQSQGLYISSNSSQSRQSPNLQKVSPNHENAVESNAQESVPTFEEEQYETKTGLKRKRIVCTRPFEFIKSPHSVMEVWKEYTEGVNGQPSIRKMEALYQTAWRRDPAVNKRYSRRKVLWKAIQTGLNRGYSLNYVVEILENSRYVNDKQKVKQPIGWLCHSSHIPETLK
Procedure: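 Universal 'all 10-mer' protein binding microarrays (Agilent AMADID 015681) probed with GST-tagged S. cerevisiae TFs (full-length or DBD) made by in vitro transcription/translation (PURExpress), about 100-200 nM. Bound TF was detected with fluorescent anti-GST. Each ungapped 8-mer (which stands for itself and its reverse complement) is scored by the PBM enrichment score (E-score), a modified Wilcoxon-Mann-Whitney statistic from -0.5 to +0.5, computed with the Universal PBM Analysis Suite. Scale: above 0.35 generally sequence-specific binding.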

| Sequence | PBM E-score |
| --- | --- |
| CGTGGTGC | -0.259 |
| ATTGGTGA | 0.00301 |
| ATTACACA | 0.0559 |
| GAGTTCAA | 0.0674 |
| CCACATGC | 0.0198 |
| ACCGCGAT | 0.0313 |
| AGGCGATC | 0.00121 |
| AAGATCCC | -0.0498 |
| CTGGTTTC | -0.0707 |
| ACCGAACT | -0.0318 |
| AGCACAAC | 0.106 |
| AAATTGTG | -0.0335 |
| AAGGCTGA | -0.0984 |
| AAGAACAC | 0.255 |
| CAGTGCAC | -0.24 |
| GACCCCAC | -0.255 |
| ACCTGACC | -0.0514 |
| AAAAACAC | 0.146 |
| TCAATGGA | -0.0393 |
| GGTCGTGA | -0.0931 |
| ATACTTTG | 0.0663 |
| GAGAACCC | -0.0548 |
| AGATGCAG | -0.0152 |
| AATTATCT | 0.113 |
| CTCTTATA | 0.123 |

| Sequence | PBM E-score |
| --- | --- |
| GTAGCGTA | -0.0788 |
| AGTGTGCA | 0.0471 |
| CAAGACGA | 0.06 |
| ACGTTGAT | 0.00703 |
| CTGGCGGC | -0.23 |
| ATTTGAGC | -0.0055 |
| ACAGCCCA | -0.0163 |
| CATAGGTA | 0.0152 |
| ATGACATA | 0.417 |
| CGATGCAA | -0.241 |
| CCGACCGG | -0.121 |
| ATTCGATG | 0.0522 |
| ATCGCTCA | -0.074 |
| CAATGATA | 0.00306 |
| AGTTCACC | 0.0664 |
| GAGGCCAC | -0.173 |
| CGTGATAA | 0.1 |
| CCTCACAG | 0.0725 |
| GTTTGGTA | 0.0566 |
| ATTCTTCG | -0.172 |
| AAAGCCTT | -0.141 |
| CTGCATAA | 0.152 |
| AGGTAATA | 0.0727 |
| GTGGCCCA | -0.145 |
| ATCCCTCG | -0.0675 |

| Sequence | PBM E-score |
| --- | --- |
| AGGCCACA | -0.241 |
| CAAAAGCC | -0.132 |
| CGATTGTC | 0.348 |
| CTGATCGA | -0.198 |
| AATACAGC | 0.124 |
| TCCCCAAA | 0.096 |
| ACTTCATC | 0.0339 |
| AGGTCGTG | -0.0636 |
| GAAGGTAC | 0.065 |
| CCGCGGCG | -0.00413 |
| CCAGTGAA | -0.138 |
| GACGCCTA | -0.115 |
| CAAGACCC | -0.114 |
| AAGACTCG | 0.00163 |
| CACGCTGA | -0.127 |
| CAGCGCAG | -0.0833 |
| AGGGGTTC | -0.179 |
| AATTGGCA | -0.157 |
| ATCTTGAC | -0.13 |
| CCAGTACA | 0.177 |
| CGTGAATC | -0.104 |
| GGTCCAGA | 0.0191 |
| AGGTGGAC | -0.0313 |
| GTTCCGCA | 0.0671 |
| GAACGGTA | 0.0625 |

| Sequence | PBM E-score |
| --- | --- |
| ACTGCCTG | 0.0355 |
| ACGTGAAT | 0.102 |
| AACGTACG | 0.0495 |
| GCGGCTAC | -0.0262 |
| CGTCTACC | -0.0228 |
| AAGTAGAT | -0.00413 |
| ACGATGCG | -0.0359 |
| CGCTCACG | -0.034 |
| AAACGTCC | 0.317 |
| CCGCCCCG | 0.0277 |
| ATAAAATA | 0.183 |
| CGTTTTCA | 0.133 |
| GTGTTCGA | 0.0573 |
| GCTTCACA | -0.173 |
| AATCTCAG | 0.0019 |
| ACTTCTTG | 0.0109 |
| GCGAGCAC | -0.136 |
| GCTCAAAC | 0.0324 |
| ATTATGAA | 0.026 |
| AGTCGCAT | 0.0267 |
| GATGTCGC | 0.0908 |
| GATTGGGA | 0.051 |
| CTCATACC | 0.138 |
| CTGGTGGC | -0.267 |
| CGCTAGTA | 0.0794 |

| Sequence | PBM E-score |
| --- | --- |
| GGGAGCCC | -0.194 |
| AACATTTA | 0.252 |
| AGCCATGA | -0.0403 |
| CAGATTAG | -0.177 |
| TAACTTCA | 0.139 |
| CTGTTGTA | 0.153 |
| AAAGAACA | 0.148 |
| GACAACAA | 0.281 |
| AGCGGAAG | 0.0197 |
| AGAGATAT | 0.0248 |
| AGTGAAGA | -0.123 |
| GAGTGCAC | -0.15 |
| AATTTTCC | 0.127 |
| CCTATAAA | -0.197 |
| CGGGAAAA | 0.0999 |
| GCCGGCGA | 0.00053 |
| ATTTTGCA | 0.17 |
| AGCCGTAT | -0.0025 |
| GACCGGCC | -0.0638 |
| CCAGTGCC | -0.17 |
| ACGCAGCC | -0.0365 |
| AAATTAGT | 0.208 |
| AAAAGCCG | -0.0909 |
| CCGCGCAC | -0.149 |
| AATCAAAA | 0.089 |

| Sequence | PBM E-score |
| --- | --- |
| GAGGCAGA | -0.23 |
| CCCGCCGG | -0.195 |
| CAATTAAC | -0.0234 |
| ACGTAGTC | -0.112 |
| CGCAACAC | 0.053 |
| GCGCAACC | -0.293 |
| CGCTAGCC | -0.222 |
| CTCCTCAA | -0.282 |
| CCGATATA | 0.113 |
| GTTCCCAA | 0.0203 |
| CTCCCCAA | -0.204 |
| AATTATTA | 0.221 |
| ATCTAAAG | 0.0842 |
| CCGTTCAG | -0.141 |
| AGTTGCCG | -0.128 |
| CTTAGGCC | -0.0661 |
| ACGTCTAA | 0.0583 |
| CCTTTTCG | 0.108 |
| GGTCTAGA | -0.0411 |
| CATTACGG | 0.0771 |
| GCGCATAC | -0.126 |
| CACGGTAA | -0.143 |
| AAGAGTGG | -0.179 |
| GGAACCAA | 0.0933 |
| GATCCCCC | -0.393 |

| Sequence | PBM E-score |
| --- | --- |
| GGATACTA | 0.0119 |
| ACACAGGC | 0.00042 |
| GAACGTTA | -0.25 |
| CCGCGTAG | -0.156 |
| TAACGCAA | -0.0729 |
| GATGATGC | -0.0521 |
| GTGCCATA | -0.119 |
| GCTAAGCC | -0.193 |
| CCGTCCAG | -0.00159 |
| GTGTGGTA | -0.0225 |
| GTGCTCGA | -0.115 |
| AAACGCAA | 0.122 |
| GAGCATCC | -0.181 |
| CGCAATAC | 0.0165 |
| AGTGCAAC | -0.141 |
| GCCAAATA | 0.0394 |
| GTGGTGCA | -0.211 |
| GCCGATCC | -0.109 |
| AACCAGAC | -0.0519 |
| CCATCTGC | 0.0419 |
| CCCCATCG | -0.253 |
| ATACGGCC | 0.0482 |
